Data as given in US20210206845A1 (Chugai, published 2021).

Target: T1, human CXCL10 (human, UniProt P02778 22-98)
T1 construct: Both are treated as the same protein; also called hCXCL10; IP-10
Test: Biacore SPR, antibody captured on protein A CM3 chip, 6.25/3.125/1.563/0.781 nM human CXCL10 as analyte, 25 C

B1: EEIVHC002/EEIVL (antibody, human IgG1, kappa)
heavy: QMQLVESGGGVVQPGRSLRLSCTASGFTFSNNGMHWVRQAPGKGLEWVAVIWFDGMNKFYVDSVKGRFTISRDNSKNTLYLEMNSLRAEDTAIYYCAREGDGSGIYYYYGMDVWGQGTTVTVGLSGRSDNHGSS[sequence of human IgG1 constant region not given]
light: [sequence of about 100 residues not given][sequence of about 120 residues not given]
notes: IgG1
binding result: binds

B2: EEIVHC003/EEIVL (antibody, human IgG1, kappa)
heavy: QMQLVESGGGVVQPGRSLRLSCTASGFTFSNNGMHWVRQAPGKGLEWVAVIWFDGMNKFYVDSVKGRFTISRDNSKNTLYLEMNSLRAEDTAIYYCAREGDGSGIYYYYGMDVWGQGTTVTVSGLSGRSDNHGSSS[sequence of human IgG1 constant region not given]
light: [sequence of about 100 residues not given][sequence of about 120 residues not given]
notes: IgG1
binding result: binds

B3: EEIVHC004/EEIVL (antibody, human IgG1, kappa)
heavy: QMQLVESGGGVVQPGRSLRLSCTASGFTFSNNGMHWVRQAPGKGLEWVAVIWFDGMNKFYVDSVKGRFTISRDNSKNTLYLEMNSLRAEDTAIYYCAREGDGSGIYYYYGMDVWGQGTTVTVGSGLSGRSDNHGSSSS[sequence of human IgG1 constant region not given]
light: [sequence of about 100 residues not given][sequence of about 120 residues not given]
notes: IgG1
binding result: binds

B4: EEIVHC005/EEIVL (antibody, human IgG1, kappa)
heavy: QMQLVESGGGVVQPGRSLRLSCTASGFTFSNNGMHWVRQAPGKGLEWVAVIWFDGMNKFYVDSVKGRFTISRDNSKNTLYLEMNSLRAEDTAIYYCAREGDGSGIYYYYGMDVWGQGTTVTVGGSGLSGRSDNHGSSGSS[sequence of human IgG1 constant region not given]
light: [sequence of about 100 residues not given][sequence of about 120 residues not given]
notes: IgG1
binding result: binds
